This is one part of the list. Sequences were assembled here from the parent chain. Values near 0.05 are background.
B1: TEV protease; numbered along this chain (parent)
chain: MGESLFKGPRDYNPISSSICHLTNESDGHTTSLYGIGFGPFIITNKHLFRRNNGTLVVQSLHGVFKVKDTTTLQQHLVDGRDMIIIRMPKDFPPFPQKLKFREPQREERICLVTTNFQTKSMSSMVSDTSCTFPSGDGIFWKHWIQTKDGQCGSPLVSTRDGFIVGIHSASNFTNTNNYFTSVPKNFMELLTNQEAQQWVSGWRLNADSVLWGGHKVFMVKPEEPFQPVKEATQL

Variants of: B1
Test: raw area under fraction-flipped curve 0-4 h after induction (AUC4h, not background-subtracted), DNA-recorder readout of cleavage of the substrate (dimensionless); higher = more cleavage of the substrate by the protease variant
Conditions: temperature: 34 °C; time window: 0-4 h after rhamnose induction
Protocol: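 In vivo DNA recorder in E. coli TOP10(DE3) ΔrhaA at 34 °C. Each TEVp single-site mutant (parent TEVp 0) is paired with a single-site variant of the 7-mer TEVs (canonical ENLYFQ|S). The substrate sits between flexible linkers in a Bxb1-sfGFP-TEVs-SsrA fusion, so cleavage stabilises Bxb1 and speeds flipping of a recombination array, read by NGS. The value is the raw area under the fraction-flipped curve over 0-4 h after rhamnose induction (AUC4h), with ≥20 reads per time point. It is not background-subtracted; inactive controls average about 0.047.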
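Further: Bxb1 expression induced with 0.2% (w/v) L-rhamnose at OD600 near 0.5, cultures sampled hourly, flipped fraction per protease–substrate barcode pair counted by paired-end Illumina sequencing.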

| Variant | area with substrate ENLYFQA | area with substrate ENLYFQC | area with substrate ENLYFQG | area with substrate ENLYFQH | area with substrate ENLYFQI | area with substrate ENLYFQN | area with substrate ENLYFQP | area with substrate ENLYFQR | area with substrate ENLYFQS | area with substrate ENLYFQT | area with substrate ENLYFQW | area with substrate ENLYFQY | area with substrate ENLYFQD | area with substrate ENLYFQE | area with substrate ENLYFQF | area with substrate ENLYFQL | area with substrate ENLYFQM | area with substrate ENLYFQQ | area with substrate ENLYFQK | area with substrate ENLYFQV |
| --- | --- | --- | --- | --- | --- | --- | --- | --- | --- | --- | --- | --- | --- | --- | --- | --- | --- | --- | --- | --- |
| E223I | 0.0931 | 0.0885 | 0.0903 | 0.0631 | 0.0619 | 0.0657 | 0.0559 | 0.0598 | 0.0963 | 0.0605 | 0.0601 | 0.0648 | – | – | – | – | – | – | – | – |
| F226H | 0.105 | 0.124 | 0.119 | 0.0936 | 0.0623 | 0.0887 | 0.0343 | 0.0529 | 0.111 | 0.0621 | 0.066 | 0.0767 | 0.0775 | 0.0862 | 0.0876 | 0.0619 | 0.0825 | 0.0839 | – | – |
| F226M | 0.082 | 0.117 | 0.0809 | 0.0765 | 0.0638 | 0.0769 | – | 0.0417 | 0.101 | – | 0.0698 | 0.0841 | – | – | – | 0.0587 | 0.087 | – | 0.0752 | – |
| F226N | 0.0958 | 0.0969 | 0.0964 | 0.0883 | 0.0585 | 0.0879 | – | 0.0489 | 0.112 | 0.0699 | 0.0681 | – | 0.0769 | – | – | 0.0613 | 0.124 | – | 0.065 | – |
| Q227K | 0.103 | 0.101 | – | 0.083 | 0.0729 | 0.0734 | 0.0584 | 0.0494 | 0.106 | 0.0597 | 0.0591 | 0.0786 | – | 0.0744 | – | 0.0556 | 0.101 | – | – | 0.0472 |
| Q227V | 0.0949 | 0.133 | – | 0.0676 | 0.0412 | 0.0814 | 0.0496 | 0.0533 | 0.105 | – | – | – | 0.0571 | – | – | 0.0542 | 0.0939 | – | – | 0.0551 |
| V229C | 0.115 | 0.132 | 0.0895 | 0.0767 | – | 0.079 | 0.073 | 0.0713 | 0.0983 | – | 0.0695 | – | 0.0682 | – | – | 0.0591 | 0.0965 | – | 0.0566 | 0.0623 |
| V229F | 0.0836 | 0.115 | 0.0601 | 0.0715 | 0.0661 | 0.0775 | – | – | 0.0996 | 0.068 | 0.0664 | 0.0717 | 0.0616 | – | – | 0.062 | 0.0833 | – | – | 0.0609 |
| K230C | 0.101 | 0.122 | 0.0958 | – | – | 0.0748 | – | 0.0505 | 0.102 | 0.0662 | 0.0612 | – | 0.0642 | – | – | 0.0534 | 0.104 | 0.0652 | 0.0668 | – |
| K230D | 0.0874 | 0.133 | 0.109 | 0.08 | 0.0693 | – | 0.0601 | – | 0.108 | – | 0.0879 | 0.108 | – | – | – | 0.055 | 0.09 | 0.0703 | 0.0712 | – |
| Q234N | 0.107 | 0.12 | 0.136 | 0.0756 | 0.0635 | 0.0761 | – | 0.0617 | 0.107 | 0.0767 | – | 0.0786 | – | – | – | 0.0508 | 0.084 | – | 0.0741 | 0.0545 |
| Q234W | 0.0893 | 0.108 | – | 0.0716 | 0.0527 | 0.0855 | – | 0.0512 | 0.096 | 0.0653 | 0.0562 | 0.0777 | 0.0648 | – | – | 0.0653 | 0.104 | – | – | – |
| E3Q | – | 0.109 | – | 0.0799 | 0.065 | 0.0839 | – | 0.071 | 0.0988 | – | – | – | – | – | 0.0395 | 0.066 | – | – | 0.0481 | – |
